The list shows a part of the results. Read counts after selection give these values, which scatter widely. Scores sum up all selected molecules that hold the word; the word was not tested alone.
What follows are sequences tested on IMP3 RRM1-2 (assay: 6-mer SELEX enrichment z-score vs GST control; IMP3 is the RNA-binding protein IGF2BP3; higher = more enriched by binding). Conditions: construct: RRM1-2 (1-163); SELEX round: R2.
Chain of IMP3 RRM1-2 (chain, as listed by the source): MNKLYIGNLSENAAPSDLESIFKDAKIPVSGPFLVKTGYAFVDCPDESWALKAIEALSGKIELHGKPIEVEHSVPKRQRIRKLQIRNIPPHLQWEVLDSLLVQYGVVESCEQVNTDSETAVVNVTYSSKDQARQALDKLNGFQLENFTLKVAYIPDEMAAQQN
Description: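 SELEX-seq with GST-tagged IMP3 RRM1-2 (Met1-Asn163) and an N40 RNA pool, round 2. 6-mer enrichment z-score normalised to GST SELEX. RNA written as DNA (T = U).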
In the case of GCACCT, the “6-mer SELEX enrichment z-score” value is reported as -0.007. With TGCCAC the “6-mer SELEX enrichment z-score” value was -0.099. TACATG was tested, and the “6-mer SELEX enrichment z-score” value was 0.561. In the case of CAAGGC, the “6-mer SELEX enrichment z-score” value is reported as 0.693. With ACGGTG the “6-mer SELEX enrichment z-score” value was -0.049. With CAGCGC the “6-mer SELEX enrichment z-score” value was 0.201. In the case of ACTCTA, the “6-mer SELEX enrichment z-score” value is reported as -0.081. For TAAAAG, the “6-mer SELEX enrichment z-score” value was -1.59. For CTGCCG, the “6-mer SELEX enrichment z-score” value was -0.315. For GAGGCT, the “6-mer SELEX enrichment z-score” value was 0.18. In the case of GTTGAC, the “6-mer SELEX enrichment z-score” value is reported as -0.294. For TATGTA, the “6-mer SELEX enrichment z-score” value was -0.02. With CTTCCA the “6-mer SELEX enrichment z-score” value was 0.386. For TCCTGA, the “6-mer SELEX enrichment z-score” value was -0.388. In the case of GCGTGA, the “6-mer SELEX enrichment z-score” value is reported as -0.181. With TGGGCT the “6-mer SELEX enrichment z-score” value was 0.46. With GACCTG the “6-mer SELEX enrichment z-score” value was -0.917. For CGCTGC, the “6-mer SELEX enrichment z-score” value was -0.001. With GAAATT the “6-mer SELEX enrichment z-score” value was -0.898. ATGAGC was tested, and the “6-mer SELEX enrichment z-score” value was -0.347. In the case of TAAGCG, the “6-mer SELEX enrichment z-score” value is reported as -0.217. CCCGTT was tested, and the “6-mer SELEX enrichment z-score” value was -0.195. ATTTAA was tested, and the “6-mer SELEX enrichment z-score” value was -0.157. With GTGCTA the “6-mer SELEX enrichment z-score” value was 0.079. GACGAG was tested, and the “6-mer SELEX enrichment z-score” value was -0.977. In the case of GGTTGG, the “6-mer SELEX enrichment z-score” value is reported as 0.418. AGCCCC was tested, and the “6-mer SELEX enrichment z-score” value was -0.944. With ACGCAT the “6-mer SELEX enrichment z-score” value was 0.722. CAAGCG was tested, and the “6-mer SELEX enrichment z-score” value was -0.25. In the case of CTCAAA, the “6-mer SELEX enrichment z-score” value is reported as -0.17. With GGAACG the “6-mer SELEX enrichment z-score” value was -0.946. In the case of TAGGTA, the “6-mer SELEX enrichment z-score” value is reported as 0.236. With GTTGTG the “6-mer SELEX enrichment z-score” value was 0.311. TAAAGC was tested, and the “6-mer SELEX enrichment z-score” value was -0.639. For CGGACA, the “6-mer SELEX enrichment z-score” value was -0.142. In the case of CCGAAC, the “6-mer SELEX enrichment z-score” value is reported as -1.22. With GTCACG the “6-mer SELEX enrichment z-score” value was -0.002. For CTGGGG, the “6-mer SELEX enrichment z-score” value was 0.182. ATTCCT was tested, and the “6-mer SELEX enrichment z-score” value was 0.092.

These sequences were tested against IMP3 full-length (UniProt O00425) in the same assay as above. Conditions: construct: FL IMP3 (1-579); SELEX round: R4.
Chain of UniProt O00425 (O00425 whole entry): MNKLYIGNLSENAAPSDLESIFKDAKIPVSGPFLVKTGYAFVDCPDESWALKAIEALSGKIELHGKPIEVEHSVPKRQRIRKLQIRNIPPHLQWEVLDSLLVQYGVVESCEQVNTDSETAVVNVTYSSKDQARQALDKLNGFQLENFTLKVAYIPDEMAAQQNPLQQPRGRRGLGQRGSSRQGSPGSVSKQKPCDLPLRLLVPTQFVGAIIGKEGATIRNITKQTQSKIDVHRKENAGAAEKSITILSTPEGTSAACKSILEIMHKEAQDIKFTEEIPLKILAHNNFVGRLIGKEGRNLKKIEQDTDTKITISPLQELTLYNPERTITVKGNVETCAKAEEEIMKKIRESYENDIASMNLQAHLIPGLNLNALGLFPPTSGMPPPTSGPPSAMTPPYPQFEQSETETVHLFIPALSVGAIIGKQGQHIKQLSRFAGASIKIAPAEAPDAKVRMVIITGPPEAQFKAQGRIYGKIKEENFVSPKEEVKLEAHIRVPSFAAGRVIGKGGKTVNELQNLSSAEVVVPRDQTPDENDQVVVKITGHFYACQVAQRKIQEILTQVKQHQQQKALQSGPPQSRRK
Description: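 SELEX-seq with GST-tagged full-length IMP3 and an N40 RNA pool, round 4. Each 6-mer is scored as an enrichment z-score of sequence tags containing it, normalised to the matching GST SELEX round. RNA written as DNA (T = U).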
For GCACCT, the “6-mer SELEX enrichment z-score” value was -0.129. TGCCAC was tested, and the “6-mer SELEX enrichment z-score” value was 0.062. TACATG was tested, and the “6-mer SELEX enrichment z-score” value was 0.849. CAAGGC was tested, and the “6-mer SELEX enrichment z-score” value was 1.1. In the case of ACGGTG, the “6-mer SELEX enrichment z-score” value is reported as 0.069. For CAGCGC, the “6-mer SELEX enrichment z-score” value was 0.227. With ACTCTA the “6-mer SELEX enrichment z-score” value was -0.599. TAAAAG was tested, and the “6-mer SELEX enrichment z-score” value was -1.17. With CTGCCG the “6-mer SELEX enrichment z-score” value was -0.015. For GAGGCT, the “6-mer SELEX enrichment z-score” value was 0.404. For GTTGAC, the “6-mer SELEX enrichment z-score” value was -0.609. With TATGTA the “6-mer SELEX enrichment z-score” value was -0.031. For CTTCCA, the “6-mer SELEX enrichment z-score” value was -0.116. With TCCTGA the “6-mer SELEX enrichment z-score” value was -0.903. GCGTGA was tested, and the “6-mer SELEX enrichment z-score” value was -0.391. TGGGCT was tested, and the “6-mer SELEX enrichment z-score” value was 0.187. With GACCTG the “6-mer SELEX enrichment z-score” value was -1.28. With CGCTGC the “6-mer SELEX enrichment z-score” value was 0.212. GAAATT was tested, and the “6-mer SELEX enrichment z-score” value was -0.577. ATGAGC was tested, and the “6-mer SELEX enrichment z-score” value was -1.82. TAAGCG was tested, and the “6-mer SELEX enrichment z-score” value was -0.864. With CCCGTT the “6-mer SELEX enrichment z-score” value was -0.194. With ATTTAA the “6-mer SELEX enrichment z-score” value was 0.045. GTGCTA was tested, and the “6-mer SELEX enrichment z-score” value was -0.157. GACGAG was tested, and the “6-mer SELEX enrichment z-score” value was -0.631. In the case of GGTTGG, the “6-mer SELEX enrichment z-score” value is reported as 0.332. AGCCCC was tested, and the “6-mer SELEX enrichment z-score” value was -0.421. With ACGCAT the “6-mer SELEX enrichment z-score” value was 0.762. With CAAGCG the “6-mer SELEX enrichment z-score” value was -0.916. CTCAAA was tested, and the “6-mer SELEX enrichment z-score” value was -0.934. In the case of GGAACG, the “6-mer SELEX enrichment z-score” value is reported as -0.155. TAGGTA was tested, and the “6-mer SELEX enrichment z-score” value was 0.043. With GTTGTG the “6-mer SELEX enrichment z-score” value was -0.216. With TAAAGC the “6-mer SELEX enrichment z-score” value was -0.99. CGGACA was tested, and the “6-mer SELEX enrichment z-score” value was 0.909. With CCGAAC the “6-mer SELEX enrichment z-score” value was -1.65. In the case of GTCACG, the “6-mer SELEX enrichment z-score” value is reported as 0.248. CTGGGG was tested, and the “6-mer SELEX enrichment z-score” value was 0.215. ATTCCT was tested, and the “6-mer SELEX enrichment z-score” value was 0.087.

These sequences were tested on IMP3 KH1-2 in the same assay as above. Conditions: construct: KH1-2 (164-376); SELEX round: R4.
Chain of IMP3 KH1-2 (chain, as listed by the source): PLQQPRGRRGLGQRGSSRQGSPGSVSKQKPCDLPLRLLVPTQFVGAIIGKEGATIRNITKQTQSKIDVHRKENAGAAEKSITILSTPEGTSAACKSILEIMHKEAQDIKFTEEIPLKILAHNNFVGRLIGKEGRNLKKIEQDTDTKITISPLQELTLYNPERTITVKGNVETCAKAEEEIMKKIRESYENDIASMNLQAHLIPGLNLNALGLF
Description: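 SELEX-seq with GST-tagged IMP3 KH1-2 (Pro164-Phe376) and an N40 RNA pool, round 4 (stringent 300/600 mM KCl washes). 6-mer z-score of sequence-tag enrichment normalised to the corresponding GST SELEX round; RNA k-mers written as DNA (T for U).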
With GCACCT the “6-mer SELEX enrichment z-score” value was -0.577. TGCCAC was tested, and the “6-mer SELEX enrichment z-score” value was -0.016. TACATG was tested, and the “6-mer SELEX enrichment z-score” value was 1.23. For CAAGGC, the “6-mer SELEX enrichment z-score” value was -0.066. For ACGGTG, the “6-mer SELEX enrichment z-score” value was -0.108. With CAGCGC the “6-mer SELEX enrichment z-score” value was -1.03. For ACTCTA, the “6-mer SELEX enrichment z-score” value was -0.277. In the case of TAAAAG, the “6-mer SELEX enrichment z-score” value is reported as -0.338. CTGCCG was tested, and the “6-mer SELEX enrichment z-score” value was 0.027. With GAGGCT the “6-mer SELEX enrichment z-score” value was 0.287. GTTGAC was tested, and the “6-mer SELEX enrichment z-score” value was -0.85. TATGTA was tested, and the “6-mer SELEX enrichment z-score” value was 0.518. With CTTCCA the “6-mer SELEX enrichment z-score” value was 0.431. In the case of TCCTGA, the “6-mer SELEX enrichment z-score” value is reported as -0.625. In the case of GCGTGA, the “6-mer SELEX enrichment z-score” value is reported as -1.02. With TGGGCT the “6-mer SELEX enrichment z-score” value was -0.012. In the case of GACCTG, the “6-mer SELEX enrichment z-score” value is reported as -1.24. For CGCTGC, the “6-mer SELEX enrichment z-score” value was 0.265. With GAAATT the “6-mer SELEX enrichment z-score” value was 0.378. In the case of ATGAGC, the “6-mer SELEX enrichment z-score” value is reported as -2.97. In the case of TAAGCG, the “6-mer SELEX enrichment z-score” value is reported as -1.16. CCCGTT was tested, and the “6-mer SELEX enrichment z-score” value was -0.161. ATTTAA was tested, and the “6-mer SELEX enrichment z-score” value was 1.44. In the case of GTGCTA, the “6-mer SELEX enrichment z-score” value is reported as -0.124. GACGAG was tested, and the “6-mer SELEX enrichment z-score” value was -1.49. With GGTTGG the “6-mer SELEX enrichment z-score” value was 0.377. In the case of AGCCCC, the “6-mer SELEX enrichment z-score” value is reported as 0.348. In the case of ACGCAT, the “6-mer SELEX enrichment z-score” value is reported as 0.28. For CAAGCG, the “6-mer SELEX enrichment z-score” value was -2.05. With CTCAAA the “6-mer SELEX enrichment z-score” value was -1.1. For GGAACG, the “6-mer SELEX enrichment z-score” value was -0.137. For TAGGTA, the “6-mer SELEX enrichment z-score” value was -0.081. With GTTGTG the “6-mer SELEX enrichment z-score” value was -0.113. In the case of TAAAGC, the “6-mer SELEX enrichment z-score” value is reported as -0.875. CGGACA was tested, and the “6-mer SELEX enrichment z-score” value was 0.245. With CCGAAC the “6-mer SELEX enrichment z-score” value was -2.09. With GTCACG the “6-mer SELEX enrichment z-score” value was -0.613. With CTGGGG the “6-mer SELEX enrichment z-score” value was 0.375. For ATTCCT, the “6-mer SELEX enrichment z-score” value was 0.955.

From the supplement of paper PMC6531468
